Results: the supplement of paper PMC11417369
± gives the standard deviation of the averaged measurements. The list shows a part of the results.

What follows are sequences tested on PfAP2-LT AP2 domain (GST-tagged) (assay: gcPBM binding intensity (ln(normalized median fluorescence intensity)); higher = stronger DNA binding).
Summary of the method: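 DNA-binding domains from P. falciparum, fused to GST and produced in E. coli, were put on an Agilent 4 × 180k double-stranded probe array for 1 h in 1× PBS holding 1% milk, 0.2 mg/ml BSA, 0.5% salmon testes DNA and 0.03% Triton X-100. Probes were primer-extended, 36 bp long and drawn from intergenic genomic regions, with negative controls included. After Alexa488 anti-GST antibody detection and a 488 nm scan, binding intensity was set as the highest Masliner-normalised natural-log median intensity across replicate spots of either probe orientation.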

| Sequence | gcPBM binding intensity (ln) |
| --- | --- |
| GTATATATTTAAACACGTACACAAAACCCAAAAAAT [XGTACX_site8110] | 9.13 ± 0.4 |
| ATAAAACAATAAAATTGTACATAAATTGATTATACT [XGTACX_site6723] | 8.81 ± 0.42 |
| GAATAAATAGACGAGTGTACTTTTTTTTAAAAAAAA [XGTACX_site7880] | 8.61 ± 0.54 |
| ACGTTTACGTTATTATGTACGTAATATATCATACCT [XGTACX_site5006] | 8.84 ± 0.49 |
| TGAGAGTTCTCATATGCACACAAAAAACTTTCATTT [CACACA_site7898] | 8.84 ± 0.37 |
| TACATATACATATACACACACACACCCAAATAAATA [CACACA_site1344] | 10.04 ± 0.05 |
| TTGCAACTCTTCAATCGTACACATTATTTATTATAT [XGTACX_site1377] | 8.95 ± 0.33 |
| AAATATTTTTTTTCTACACACATACAAATATATATT [CACACA_site5325] | 9.02 ± 0.45 |
| AATAATAACACCGTGGATACACAATAACAAAGAACT [CACACA_negctrl_site532] | 9.37 ± 0.43 |
| TTTCATTTAGCTTTTACACACTATATATCATTGATT [CACACA_site6158] | 9.12 ± 0.49 |
| AAATAAAAAAGTAGTACACACTTCACGATATTTTTT [CACACA_site6015] | 8.79 ± 0.4 |
| AAAAATATAAACTGCACACACACAAAAAAAGAAAAA [CACACA_site648] | 9.79 ± 0.33 |
| TTTTTTTTAAAAAACACACACCTAAACAAGATATTT [CACACA_site6541] | 8.78 ± 0.2 |
| CATATTTTTAAATACACACACATAAAAAAAAAAAAA [CACACA_site1095] | 9.12 ± 0.47 |
| AATCTAATATAATGCACACATAAAAAAAAAATCAAA [CACACA_site2714] | 9.03 ± 0.45 |
| TATATTTACAATAAAACGTTATTTTTTGTTATTTTC [CACACA_negctrl_site612] | 8.66 ± 0.4 |
| TATATACATATATGTACACACATTACAGATGTACAT [CACACA_site966] | 9.21 ± 0.38 |
| TTATTATAATCATTAGTGCATATATTATTTTTATAT | 8.66 ± 0.45 |
| TTAATATAATAAAATCGTACAAATAAAATATAAAAT [XGTACX_site8730] | 8.92 ± 0.33 |
| AAAAATGAGAAACACACACACATATATATATATATA [CACACA_site2228] | 9.94 ± 0.19 |
| AAAAAAAAAAAAGATACACACAAAAATGGATATATA [CACACA_site7069] | 8.94 ± 0.49 |
| AACCAATATGAGTATACACACATAAATATAAATATA [CACACA_site5968] | 9.24 ± 0.44 |
| ATATATATATATCACCGTACTTATATAATAACATGA [XGTACX_site4398] | 9.11 ± 0.13 |

| Sequence | gcPBM binding intensity (ln) |
| --- | --- |
| TAATTATTCTATTAAGTGCATATATTTTTAAAAAGA | 8.21 ± 0.45 |
| TTTTTTTTTTATTTTTGTACATATATTTCAGTATTA [XGTACX_site8396] | 8.75 ± 0.52 |
| ACAGATATATTTATTTGTACATATCACCAAAATGGA [XGTACX_site5644] | 8.55 ± 0.4 |
| ATAATATTCGAGTGTGCACACAAACATACATATATA [CACACA_site3396] | 9.68 ± 0.44 |
| ATACAGAAAAAAAACACACACACATAATATACATAC [CACACA_site1933] | 9.84 ± 0.16 |
| ATTTTTATTAAAATATGTACGTATTTTACTCATACA [XGTACX_site5330] | 8.86 ± 0.43 |
| TACAGATATTATTGCACACATATAAAATACCCCCAA [CACACA_site6014] | 9.43 ± 0.4 |
| TTACGTTATATACATACACACCCACGCACAAAAAAA [CACACA_site6537] | 9.29 ± 0.11 |
| ATTAAATACTTCGATTGTACAATTTTTTTTTTTTTT [XGTACX_site832] | 8.59 ± 0.58 |
| TAAGAATAATGACATAGTACAATTTAATAGATCTAA [XGTACX_site3670] | 8.66 ± 0.49 |
| TTTTCAAAATAATATTATATCAAATGCTAAAAAGAA [TGCATGCA_negctrl_site588] | 8.4 ± 0.35 |
| AAGTTTATTTGTTGCACACATATAAGTAGAGAAAAT [CACACA_site3027] | 8.94 ± 0.42 |
| GTATGTATATATGTATGTACTTATGTATCATTATTA [XGTACX_site2438] | 8.95 ± 0.39 |
| TAATATTTATGTTAATGTACAAAAAAACAAAACAAA [XGTACX_site301] | 8.59 ± 0.48 |
| ATAATATATATTAAACGTACATAAAATAATTATGGA [XGTACX_site1670] | 8.82 ± 0.4 |
| TTTGTATAATACATGTGTACGTATTTTTATATAAAT [XGTACX_site8656] | 8.77 ± 0.36 |
| TTATCATTATATAGTTGTACATATTTATTTATAAAA [XGTACX_site2310] | 8.45 ± 0.44 |
| AGAACTAAAAGAACATGTACATAAATTCTAAATAAT [XGTACX_site4084] | 8.84 ± 0.49 |
| ATGATACTAAAAAATTGTACATATAACAAAAGGTAT [XGTACX_site2527] | 8.93 ± 0.39 |
| CATATATTTTGAAACACACACATATATAATATACAT [CACACA_site1158] | 9.24 ± 0.3 |
| ATAACAAAATGAAGAGTGCATTACCAAGTGGGTAAA [GTGCAC_site9450] | 8.96 ± 0.52 |
| ATATTTAAGGCGTGTATGCACACGACTATTCCGTAT [CACACA_site1080] | 9.15 ± 0.28 |
